Cytotoxicity call and growth inhibition call data for 27 molecules are collected here from the antibiotic and cytotoxicity screens of Wong et al. (2023).

The other results are listed elsewhere or left out.

The subject of one assay is HSkMC. Description: cytotoxicity call (relative viability < 0.9). The settings on record: 10 µM.
A further assay deals with HepG2. Briefly: cytotoxicity call (relative viability < 0.9). The conditions noted are these: 10 µM.
The next assay relates to S. aureus RN4220. Briefly: growth inhibition call (relative growth <= 0.2). The settings on record: 50 µM.

Consider `COC(=O)c1ccc([C@H]2C=C(C(=O)N3CCOCCOCCOCCOCC3)O[C@@H](OCCCCO)C2)cc1`, for which the cytotoxicity call in the assay on HSkMC and in the assay on HepG2 was “inactive” in each case. In the assay with S. aureus RN4220, the growth inhibition call was “inactive”.
For `CC1=C(C(=O)O)N2C(=O)C(NC(=O)C(N)c3ccccc3)C2SC1` (stereo unspecified), the cytotoxicity call with HSkMC and in the assay on HepG2 was “inactive” throughout. Besides, the growth inhibition call in the assay on S. aureus RN4220 was “inactive”.
As for `O=C1C[C@H](c2ccc(-c3ccc(C(F)(F)F)cc3)cc2)C2(C(=O)c3ccccc3C2=O)[C@H](c2ccccc2)C1`, the cytotoxicity call in the assay on HSkMC and in the assay on HepG2 was “inactive” each time. For the same molecule, the growth inhibition call in the assay on S. aureus RN4220 is “inactive”.
As for `C[C@@H]1CCCCO[C@@H](CN(C)CC2CCCCC2)[C@H](C)CN([C@@H](C)CO)C(=O)c2cc(NC(=O)CCC(F)(F)F)ccc2O1`, the cytotoxicity call with HSkMC and with HepG2 was “inactive” each time. Besides, the growth inhibition call in the assay with S. aureus RN4220 is “inactive”.
On to `C[C@@H]1CCCCO[C@@H](CN(C)C(=O)c2ccccc2)[C@@H](C)CN([C@H](C)CO)C(=O)c2cc(NS(=O)(=O)c3cccs3)ccc2O1`, for which the cytotoxicity call in the assay on HSkMC and with HepG2 was “inactive” in each case. For the same molecule, in the assay with S. aureus RN4220, the growth inhibition call is “inactive”.
As to `O=C(C[C@H]1CC[C@H]2[C@@H](COC[C@H](O)CN2S(=O)(=O)c2ccc(Cl)cc2)O1)NCCN1CCCCC1`, the cytotoxicity call in the assay on HSkMC and in the assay on HepG2 was “inactive” each time. Also, the growth inhibition call with S. aureus RN4220 was “inactive”.
For the molecule `COc1ccc(NC(=O)Nc2ccc3c(c2)C(=O)N([C@@H](C)CO)C[C@H](C)[C@@H](CN(C)Cc2ccncc2)OCCCC[C@H](C)O3)cc1`, the cytotoxicity call with HSkMC and in the assay on HepG2 was “inactive” each time. In addition, in the assay on S. aureus RN4220, the growth inhibition call was “inactive”.
For `C[C@H]1CN([C@@H](C)CO)C(=O)CCCn2nncc2CO[C@H]1CN(C)S(=O)(=O)c1cccc(C#N)c1`, the cytotoxicity call with HSkMC and in the assay on HepG2 was “inactive” throughout. The growth inhibition call with S. aureus RN4220 is “inactive”.
Turning to `NS(=O)(=O)c1ccc(NC(=O)[C@H]2CCCNC2=O)cc1`, the cytotoxicity call in the assay with HSkMC and in the assay on HepG2 was “inactive” throughout. Moreover, the growth inhibition call in the assay on S. aureus RN4220 was “inactive”.
`COc1ccc(S(=O)(=O)Nc2ccc3c(c2)C(=O)N([C@@H](C)CO)C[C@@H](C)[C@@H](CN(C)Cc2ccc(Cl)c(Cl)c2)O3)cc1`: the cytotoxicity call with HSkMC and in the assay with HepG2 was “active” throughout. The growth inhibition call in the assay on S. aureus RN4220 is “inactive”.
Take `C[C@@H]1CN([C@@H](C)CO)C(=O)CCCn2nncc2CO[C@H]1CN(C)C(=O)Nc1ccnc(N2CCOCC2)c1`: the cytotoxicity call in the assay with HSkMC and in the assay with HepG2 was “inactive” throughout. Also, in the assay with S. aureus RN4220, the growth inhibition call is “inactive”.
For `COc1ccc([C@@H]([C@H](Cc2ccccc2)OC(C)=O)N2C[C@@H](NC(=O)C(Cl)(Cl)Cl)[C@@H]3C(=NO[C@H]3c3ccccc3)[C@@H]2Cc2ccccc2)cc1`, the cytotoxicity call with HSkMC and with HepG2 was “inactive” each time. In the assay with S. aureus RN4220, the growth inhibition call is “inactive”.
Take `COCC(=O)N1C[C@@H](C)[C@@H](OC)CN(C)C(=O)c2cc(NC(=O)Nc3cccc(F)c3)ccc2OC[C@@H]1C`: the cytotoxicity call with HSkMC and in the assay on HepG2 was “inactive” each time. Moreover, in the assay with S. aureus RN4220, the growth inhibition call is “inactive”.
For `COC(=O)c1c(CC[C@@H](CO)NC(=O)N[C@@H](Cc2ccccc2)Cn2cc(-c3cncn3C)nn2)oc(C(C)=O)c1C(=O)OC`, the cytotoxicity call with HSkMC and in the assay with HepG2 was “inactive” throughout. Further, in the assay on S. aureus RN4220, the growth inhibition call was “inactive”.
`C[C@@H]1CN([C@@H](C)CO)C(=O)c2cc(NC(=O)C3CC3)ccc2O[C@H]1CN(C)S(=O)(=O)c1cn(C)cn1`: the cytotoxicity call with HSkMC and in the assay with HepG2 was “inactive” throughout. The growth inhibition call with S. aureus RN4220 is “inactive”.
Take `C[C@@H]1CN([C@@H](C)CO)C(=O)c2cc(NS(=O)(=O)c3ccc(Cl)cc3)ccc2O[C@@H](C)CCCCO[C@@H]1CN(C)C(=O)Nc1ccc(C(F)(F)F)cc1`: the cytotoxicity call in the assay with HSkMC and in the assay with HepG2 was “inactive” each time. Besides, the growth inhibition call in the assay on S. aureus RN4220 was “inactive”.
Turning to `O=C(O)CCNC(=O)c1cncc(O)c1`, the cytotoxicity call with HSkMC and in the assay with HepG2 was “inactive” throughout. Besides, the growth inhibition call in the assay with S. aureus RN4220 is “inactive”.
On to `Cn1cnc(S(=O)(=O)N[C@H]2C=C[C@@H](CC(=O)Nc3ccccc3)O[C@H]2CO)c1`, for which the cytotoxicity call in the assay on HSkMC and in the assay on HepG2 was “inactive” each time. Moreover, in the assay with S. aureus RN4220, the growth inhibition call is “inactive”.
As to `C[C@H]1CN([C@@H](C)CO)C(=O)c2cc(NC(=O)CCCN(C)C)ccc2O[C@H]1CN(C)S(=O)(=O)c1ccccc1`, the cytotoxicity call in the assay with HSkMC and in the assay on HepG2 was “inactive” throughout. The growth inhibition call with S. aureus RN4220 was “inactive”.
Consider `O=C(O)C[C@](O)(Cc1ccc(O)cc1)C(=O)O`, for which the cytotoxicity call with HSkMC and in the assay with HepG2 was “inactive” each time. In addition, the growth inhibition call in the assay with S. aureus RN4220 is “inactive”.
As for `NC1(C(=O)N2CCCN(S(=O)(=O)c3ccccc3)CC2)Cc2ccccc2C1`, the cytotoxicity call in the assay on HSkMC (human skeletal muscle cells) and with HepG2 was “inactive” throughout. Moreover, the growth inhibition call in the assay with S. aureus RN4220 is “inactive”.
Turning to `O=C1OCCC=C[C@H]2O[C@@]34C=CCN(c5ccc(Cl)cc5)C(=O)[C@H]3N(CCCCCCO)C(=O)[C@@H]4[C@@H]12`, the cytotoxicity call with HSkMC and with HepG2 was “inactive” each time. In the assay on S. aureus RN4220, the growth inhibition call is “inactive”.
On to `C[C@@H]1CCCCO[C@@H](CN(C)S(=O)(=O)c2cccs2)[C@@H](C)CN([C@@H](C)CO)C(=O)c2cc(NC(=O)Nc3ccc(C(F)(F)F)cc3)ccc2O1`, for which the cytotoxicity call in the assay with HSkMC and in the assay with HepG2 was “inactive” in each case. Moreover, the growth inhibition call with S. aureus RN4220 is “inactive”.
`C[C@H]1CN([C@@H](C)CO)C(=O)c2cccc(NS(C)(=O)=O)c2O[C@H]1CN(C)S(=O)(=O)c1ccc(F)cc1`: the cytotoxicity call with HSkMC and with HepG2 was “inactive” throughout. Besides, the growth inhibition call in the assay with S. aureus RN4220 was “inactive”.
Turning to `C[C@H](CO)N1C[C@H](C)[C@H](CN(C)C(=O)Nc2ccccc2)Oc2ccc(NC(=O)Nc3ccc(C(F)(F)F)cc3)cc2CC1=O`, the cytotoxicity call in the assay with HSkMC is “inactive”. Moreover, in the assay with HepG2, the cytotoxicity call was “active”. Also, the growth inhibition call in the assay with S. aureus RN4220 was “inactive”.
Take `NC(=O)c1nnc2ccc(Cl)cc2c1N`: the cytotoxicity call with HSkMC and in the assay on HepG2 was “inactive” throughout. Besides, in the assay with S. aureus RN4220, the growth inhibition call is “inactive”.
On to `O=C(C[C@@H]1CC[C@H]2[C@@H](COC[C@@H](O)CN2S(=O)(=O)c2ccc(F)cc2)O1)N[C@@H]1CCN(Cc2ccccc2)C1`, for which the cytotoxicity call in the assay with HSkMC and in the assay on HepG2 was “inactive” in each case. Further, the growth inhibition call in the assay with S. aureus RN4220 is “inactive”.
